Screen size: about 310,000 compounds; about 14,000 (4.5%) showed an effect of 50% or more. The effect is printed as a negative number. This is one part of the list.
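Also: peak tail current of the secondary pulse compared with the same well before compound.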

In the assay the target is human ether-à-go-go-related gene (hERG) potassium channel (human, UniProt Q12809). As to the kind of experiment: primary screen, population patch clamp on CHO cells stably expressing hERG.
Chain of human ether-à-go-go-related gene (hERG) potassium channel (Q12809 whole entry, looked up): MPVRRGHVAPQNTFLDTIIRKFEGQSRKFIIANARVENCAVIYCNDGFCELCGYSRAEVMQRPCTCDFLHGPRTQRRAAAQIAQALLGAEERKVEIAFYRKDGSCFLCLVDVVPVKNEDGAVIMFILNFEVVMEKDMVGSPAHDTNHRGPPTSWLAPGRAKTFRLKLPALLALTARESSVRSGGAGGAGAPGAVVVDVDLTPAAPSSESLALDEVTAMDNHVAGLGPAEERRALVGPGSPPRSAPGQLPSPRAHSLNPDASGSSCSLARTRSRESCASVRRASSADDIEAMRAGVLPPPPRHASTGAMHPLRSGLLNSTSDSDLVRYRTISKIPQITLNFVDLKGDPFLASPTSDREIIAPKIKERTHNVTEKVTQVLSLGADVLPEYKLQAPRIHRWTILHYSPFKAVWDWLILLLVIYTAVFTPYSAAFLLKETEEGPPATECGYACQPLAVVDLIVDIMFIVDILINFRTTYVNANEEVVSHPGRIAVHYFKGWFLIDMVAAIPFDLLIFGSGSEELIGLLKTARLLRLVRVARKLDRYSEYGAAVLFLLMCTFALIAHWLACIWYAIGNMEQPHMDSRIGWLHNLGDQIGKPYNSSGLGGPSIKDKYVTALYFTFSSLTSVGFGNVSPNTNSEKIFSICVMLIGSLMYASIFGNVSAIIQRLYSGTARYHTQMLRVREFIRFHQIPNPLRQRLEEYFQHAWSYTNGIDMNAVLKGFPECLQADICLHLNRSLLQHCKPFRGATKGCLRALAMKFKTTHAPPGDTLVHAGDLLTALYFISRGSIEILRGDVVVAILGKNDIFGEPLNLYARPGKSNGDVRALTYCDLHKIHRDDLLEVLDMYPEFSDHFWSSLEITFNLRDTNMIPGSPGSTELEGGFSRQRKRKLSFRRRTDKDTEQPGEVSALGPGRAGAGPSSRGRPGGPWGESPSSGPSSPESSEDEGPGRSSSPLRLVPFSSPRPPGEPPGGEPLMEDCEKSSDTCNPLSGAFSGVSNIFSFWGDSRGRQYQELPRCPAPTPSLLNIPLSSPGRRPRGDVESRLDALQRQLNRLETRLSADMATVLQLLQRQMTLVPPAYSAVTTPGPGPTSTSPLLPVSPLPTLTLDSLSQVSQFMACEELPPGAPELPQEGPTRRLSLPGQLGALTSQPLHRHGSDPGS
For the compound `COCCN(CCOC)S(=O)(=O)c1ccc(C(=O)NC2CCN(Cc3ccccc3)CC2)cc1.Cl`, the “hERG current change (%, negative = inhibition) at 10uM” value was -29.1%. As for `Cc1ccc2c(c1)[C@H]1[C@H](CO2)[C@H](c2ccccc2)[C@]2(C)C(=O)NCC(=O)N12`, the figure is 9.76%. As for `CCCCCSc1nc2c(c(=O)[nH]c(=O)n2C)n1CCc1ccccc1`, the figure is -1.1%; as for `O=C(O)Cc1ccc(NC(=O)c2cccc(NC(=O)c3ccco3)c2)cc1`, 16%.

As to `CCc1nnc(SCC(=O)N2CCc3ccccc32)n1CC`, the “hERG current change (%, negative = inhibition) at 10uM” value amounted to 5.91%. As for `CCOc1ccc(-n2c(-c3ccccc3)nnc2-c2ccccc2)cc1`, the figure is -6.7%. As for `C/C(=N\NC(=O)c1cccc(S(=O)(=O)N2CCOCC2)c1)c1ccc(C#N)cc1`, the figure is -52.6%; as for `C=CCOc1ccc(C(=O)Nc2ccccc2C(=O)NCc2cccnc2)cc1`, 4.02%; as for `OCCc1ccccc1`, 16.5%.

With `O=c1cc(-c2ccccc2)nc(Cc2c(Cl)cccc2Cl)[nH]1`, the “hERG current change (%, negative = inhibition) at 10uM” value is -1.98%. As for `COc1cc(-c2nc(N)n[nH]2)cc(OC)c1OC`, the figure is 17.7%; as for `O=C(NCc1ccccc1)N1CCN(CCO)CC1`, 14.8%; as for `COc1ccc(S(=O)(=O)N2CCN(C(=O)CCOc3ccccc3)CC2)cc1OC`, -23.6%.

With `CNS(=O)(=O)c1cccc(C(=O)NC2CCCc3ccccc32)c1` (centres unmarked), the “hERG current change (%, negative = inhibition) at 10uM” value was -10.3%. Under `CC(CCc1ccccc1)NC(=O)CN1C(=O)NC2(CCCCC2C)C1=O` (centres unmarked) stands -16.3%. Under `S=C1NC[C@H](CC2CCCCC2)N1CCCCC1CCCCC1` stands 13.4%; under `CCCCn1c(SCc2ccc(Cl)cc2)nc2c1c(=O)[nH]c(=O)n2C`, -4.37%. Regarding `Cc1cc(=O)oc2c(C)c(OCC(=O)N3CCC(C(=O)O)CC3)ccc12`, the “hERG current change (%, negative = inhibition) at 10uM” value was 5.01%. As for `COc1ccc(-c2c(C#N)c(N)nc3c2c(=O)n(C)c(=O)n3C)cc1Cl`, the figure is -24.5%; as for `Cc1ccc(CCNC(=O)C2CCN(S(=O)(=O)N3CCCCC3)CC2)cc1`, 13.3%. Under `O=C(CSc1nccn1-c1ccc(Cl)cc1)N1CCCc2ccccc21` stands -11.7%. Under `Cc1ccccc1N1C(=O)c2ccccc2NC1c1ccncc1` (centres unmarked) stands 8.69%; under `O=C(CCN1CCCCC1)c1ccc2c(c1)OCO2`, -0.169%; under `Cc1ccc(NCc2nnc3n2CCCCC3)c(C)c1`, 12.7%.

Take `COc1ccc(C(=O)COC(=O)c2ccc3c(c2)OCO3)c(OC)c1`: the “hERG current change (%, negative = inhibition) at 10uM” value is -16.9%. Under `O=C1NC(CCc2ccccc2)C(=O)N1Cc1ccccc1Cl` (centres unmarked) stands -4.41%; under `COc1ccc(CNC(=S)NNC(=O)c2cc3ccccc3o2)cc1`, -43.7%; under `COc1ccc(CCC(=O)OCC(=O)Nc2c(C)n(C)n(-c3ccccc3)c2=O)cc1`, -11%. As for `CCOC(=O)c1[nH]c2ccc(F)cc2c1NC(=O)c1cc(OC)c(OC)c(OC)c1`, the figure is 6.93%.

With `Clc1ccccc1-c1nc2ccccc2c2nncn12`, the “hERG current change (%, negative = inhibition) at 10uM” value is -6.39%.

Take `CC(NC(=O)Cc1ccccc1)C(c1ccccc1)N1CCOCC1` (centres unmarked): the “hERG current change (%, negative = inhibition) at 10uM” value was 30.9%. Take `COCCNC(=O)COc1ccccc1C`: the “hERG current change (%, negative = inhibition) at 10uM” value is 6.6%.

For `Cc1ccc(/C=C2\C(=O)NC(=O)N(CCc3ccc(F)cc3)C2=O)s1`, the “hERG current change (%, negative = inhibition) at 10uM” value was 19.5%. Under `O=C(CNC(=O)Cc1cccc2ccccc12)NCc1ccccc1F` stands 14.8%; under `CCN(CC)C(=O)C(Oc1ccc(C)nc1[N+](=O)[O-])c1ccccc1` (centres unmarked), 19.3%. With `COc1ccccc1-n1cnc2cc(NC(=O)c3ccco3)ccc21`, the “hERG current change (%, negative = inhibition) at 10uM” value was -7.1%. As for `O=C(NCc1ccc(Cl)cc1)c1ccc(CNc2c(N3CCCC3)c(=O)c2=O)cc1`, the figure is 12.9%. Under `c1ccc2c(c1)nnn1c3ccccc3nc21` stands -6.29%; under `Cc1cccc(C)c1NC(=O)CN(C)C(=O)c1ccc(N2C(=O)CCC2=O)cc1`, -10.8%.

As for `CCC(C)NC(=O)c1cn(-c2cccc(OC)c2)c(=O)c2ccccc12` (centres unmarked), the “hERG current change (%, negative = inhibition) at 10uM” value turned out to be 3.66%.

As to `Cc1c(N)ccc(-n2nc3ccccc3n2)c1C`, the “hERG current change (%, negative = inhibition) at 10uM” value was -0.131%.

For the compound `CC1(C)CC(=O)C(N=Nc2ccc(F)cc2)=C(O)C1`, the “hERG current change (%, negative = inhibition) at 10uM” value is reported as -4.21%. Under `CCNC(=O)NC(=O)C(C)Sc1ccc2c(c1)OCCO2` (centres unmarked) stands 1.37%; under `COCCn1c(C)cc(C(=O)COc2ncnc3ccc(Br)cc23)c1C`, 3.3%; under `CN(C)CCCN(C(=O)/C=C/c1cccs1)c1nc2ccc(F)cc2s1.Cl`, -41%. On to `CC(=O)c1c(N2CCN(C(=O)C3CCCO3)CC2)nc(=S)n(-c2ccccc2)c1C` (centres unmarked), for which the “hERG current change (%, negative = inhibition) at 10uM” value turned out to be 1.07%.

`CCOc1ccc(Br)cc1C(=O)N/N=C/c1ccc([N+](=O)[O-])cc1`: the “hERG current change (%, negative = inhibition) at 10uM” value came out at 9.42%.

As for `Cc1ccc(S(=O)(=O)N2CCN(CC(=O)Nc3ccnn3C3CCCC3)CC2)cc1`, the “hERG current change (%, negative = inhibition) at 10uM” value is recorded as -7.38%. Under `COc1ccc(C(=O)N/C(=C\c2ccccc2)C(=O)NCCCn2ccnc2)cc1` stands -55.8%; under `CCOC(=O)c1sc2nc(CC(=O)OC)nc(N(C)CCc3ccccn3)c2c1C`, -37.8%; under `NC(=O)c1cc([N+](=O)[O-])ccc1NCc1ccc(F)cc1`, -12.5%. Under `Cc1onc(-c2ccccc2)c1C(=O)N1CCC(CO)(Cc2ccccc2)CC1` stands 12.9%; under `CCC1CCCCN1CCCNC(=O)c1csc2c1CCCCC2` (centres unmarked), -56.7%.

`CCCC(=O)N1CCN(c2nc3c(OC)ccc(Cl)c3s2)CC1`: the “hERG current change (%, negative = inhibition) at 10uM” value is reported as -29.2%. As for `Cc1cccc(C)c1NC(=O)NC1(C(=O)NCCN2CCOCC2)CCCCC1`, the figure is 15.6%; as for `C[N+](C)(C)CCOc1ccc([N+](=O)[O-])cc1.[Br-]`, -28.5%; as for `O=C(NCC1CCCN1S(=O)(=O)c1cccs1)c1ccc(Cl)cc1` (centres unmarked), -32.7%. Under `COC(=O)c1nn(-c2ccc(OC)cc2)ccc1=O` stands 13.5%; under `O=c1c2ccccc2nc(-c2ccco2)n1-c1ccccn1`, 0.658%. As for `Cl.Cn1c(=O)c2c(nc(N3CCOCC3)n2CCCNC2=NCCC2)n(C)c1=O`, the figure is 17.9%; as for `CCOC(=O)c1sc(NC(=O)c2ccc(S(=O)(=O)N3CCCCC3)cc2)nc1-c1ccccc1`, 18.1%.

With `COc1cc(C)c(NC(=O)COc2ccc3c(c2)CCC3)cc1OC`, the “hERG current change (%, negative = inhibition) at 10uM” value is on record as -5.74%.

On to `O=C(CNC(=O)Cn1ccc2ccccc2c1=O)NCCCN1CCCCCC1`, for which the “hERG current change (%, negative = inhibition) at 10uM” value amounted to 5.29%. In the case of `O=C(NCc1ccc(OC(F)(F)F)cc1)C1CC2Cn3c(nc4ccccc43)C2N1c1ccccc1` (centres unmarked), the “hERG current change (%, negative = inhibition) at 10uM” value is -61.3%. As for `Nc1c(-c2ccccc2)c(CN2CCOCC2)nn1-c1ccc(C(=O)O)cc1.O=S(=O)(O)O`, the figure is -10.1%. Under `C/C(=N\OCc1ccc(C#N)cc1)c1ccccc1` stands 12.1%. Turning to `Clc1ccc(-n2cccc2/C=N/n2cnnc2)cc1`, the “hERG current change (%, negative = inhibition) at 10uM” value was -6.08%. As for `O=C(CCC(=O)c1cccs1)Nc1ccc(F)c(F)c1F`, the figure is 0.0728%; as for `CC(Sc1nnc(NC2CCCCC2)s1)C(=O)N1CCOCC1` (centres unmarked), 11.7%.

For `CCOc1ccc(N(CC(=O)NCCSCc2ccccc2Cl)S(C)(=O)=O)cc1`, the “hERG current change (%, negative = inhibition) at 10uM” value is listed as -4.64%. For `O=S(=O)(c1cccc2cccnc12)N1CCN(Cc2ccccc2)CC1`, the “hERG current change (%, negative = inhibition) at 10uM” value is given as -0.188%. As for `Cc1ccc(-c2nn3c(C)nnc3c3ccccc23)cc1S(=O)(=O)NCc1ccco1`, the figure is -33.3%; as for `CCCCN(C(=O)c1ccc(C)c(S(=O)(=O)N2CCOCC2)c1)c1c(N)n(CCCC)c(=O)[nH]c1=O`, -12.4%.

For the compound `O=C(O)/C=C/c1nc(-c2ccccc2)n2ccccc12`, the “hERG current change (%, negative = inhibition) at 10uM” value was -33.3%. Under `CC(C)C[C@@H](CN=[N+]=[N-])N1CCN(Cc2ccccc2)CCC1=O` stands -3.5%; under `CCOc1ccccc1NC(=O)Cn1nc(-c2ccco2)ccc1=O`, -2.85%. Under `O=C(CCN1C(=O)COc2ccccc21)N1CCN(c2ccccc2)CC1` stands -15%.

Regarding `COC(=O)c1ccc(CSc2nnnn2Cc2ccccc2)cc1`, the “hERG current change (%, negative = inhibition) at 10uM” value is -9.3%. Under `CCOc1ccc(-c2nnn(CC(=O)c3ccc4c(c3)OCCO4)n2)cc1` stands -3.36%; under `O=C(CN(c1ccc(F)cc1)S(=O)(=O)c1ccc2c(c1)OCCO2)Nc1ccc2c(c1)OCO2`, 14.4%. Under `CCCc1nc2c(c(=O)c3ccccc3n2C)c(=O)n1-c1ccc(F)cc1` stands 0.271%; under `CCOc1ccc(NC(=O)CSc2nnc(CNC(=O)c3cccs3)o2)cc1`, -17.4%; under `COc1ccc(S(=O)(=O)N/N=C(/C)c2ccncc2)cc1`, 11.7%. As for `Cc1nn(C(C)C(=O)NCCc2cccs2)c(=O)c2nn(-c3ccccc3)c(C)c12` (centres unmarked), the “hERG current change (%, negative = inhibition) at 10uM” value is -5.1%. With `O=C(NCc1cc(F)ccc1F)C1CCC(=O)N(C2CCCCCC2)C1` (centres unmarked), the “hERG current change (%, negative = inhibition) at 10uM” value is 1.54%. Under `O=C(COC(=O)c1ccc(O)cc1O)NC1CCCCCC1` stands -2.41%; under `Cc1ccc(-c2nc3ccccc3c(=O)n2O)cc1`, 23.4%. As for `O=C(NCc1ccccc1)c1ccc(CSc2ccccc2)o1`, the figure is -20.4%. As for `COc1ccc(C(N)=O)cc1N`, the figure is 21.7%.
